Hit rate of the full screen: of about 44,000 compounds, about 340 (0.77%) were called active. Not shown: some 5% with an inconclusive outcome. The call rests on the fitted dose curve; in most records, active means well fitted inhibition curve with a large enough effect; inconclusive means small, poorly fitted or top-dose-only effect; inactive means flat fitted curve, though single readings scatter. The list shows a part of the results.
Experiment: Acumen qHTS Assay for Inhibitors of the mTORC1 Signaling Pathway in MEF (Tsc2-/-, p53-/-) Cells: Sytravon;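 further: plate controls were DMSO for no effect and rapamycin for full effect; nearly all actives have a fitted effect of over 50% in size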
Details: phospho-rpS6 immunofluorescence/PI, 24 h; series mostly up to 38.3 µM; activity change, negative = inhibition: at the top concentration
Summary of the method: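 Immunofluorescence of rpS6 phosphorylation in Tsc2-/-, p53-/- MEFs after 24 h compound exposure, normalized to propidium iodide signal. Activity is expressed as % positive cells, thresholded with 7.5 nM rapamycin.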

| SMILES | activity change, negative = inhibition |
| --- | --- |
| O=S(=O)(c1ccc(Cl)cc1)N1CCC(c2ccncc2)CC1 | inactive: -1.09% |
| O=C(Nc1nnc(S(=O)(=O)N2CCOCC2)s1)c1cccc(Br)c1 | inactive: -3.86% |
| Cc1nc2c(C(=O)NCCc3ccccc3)c[nH]n2c(=O)c1Cc1ccccc1F | inactive: 0.0593% |
| COc1cccc(C(=O)Nc2ccc(C(=O)OCc3cc(=O)n4cc(C)sc4n3)cc2)c1 | inactive: 2.65% |
| COc1cc(NS(=O)(=O)c2cc3c(cc2C)n(C)c(=O)c(=O)n3C)cc(OC)c1 | inactive: -13.2% |
| COc1cc(NC(=O)c2cc3cc4ccc(OC)c(Cl)c4nc3s2)cc(OC)c1 | inactive: -16% |
| COc1cc(NC(=O)NCCn2nnc3cc(S(=O)(=O)N(C)C)ccc32)cc(OC)c1OC | inactive: 15.7% |
| Cc1ccc(-c2cc3ncc4c(n3n2)-c2ccccc2OC4)cc1 | inactive: -9.19% |
| CCC(Sc1ccc2nnc(CCNS(=O)(=O)c3ccc(OC)cc3)n2n1)C(=O)OC (configuration not stated) | inactive: 0.126% |
| Cc1ccccc1C(=O)NC1(C(F)(F)F)C(=O)Nc2c1c(=O)[nH]c(=O)n2CCc1ccccc1 (configuration not stated) | inactive: 0.499% |
| COc1ccc(-c2nc3c4ccccc4n(CC(=O)Nc4ccc(C(C)=O)cc4)c(=O)n3n2)cc1 | inactive: 2.06% |
| Cc1cc(C)cc(NC(=O)CSc2nc3c(cnn3-c3ccc(F)cc3)c(=O)[nH]2)c1 | inactive: -0.752% |
| Cc1nc2ccc(S(=O)(=O)NCC(=O)Nc3ccc(C)c(Cl)c3)cc2s1 | inactive: -1.44% |
| CC1=C(c2ccc(C)c(C)c2)S(=O)(=O)N=C1N1CCC(C(=O)Nc2ccc(Cl)cc2)CC1 | inactive: 1.81% |
| CCc1nn(CC(=O)N2CCN(c3cc(C)ccc3C)CC2)c(=O)c2cc3occc3n12 | inactive: 0.904% |
| COc1ccc(CCNc2nc(SCc3ccc(F)cc3)nc3ccccc23)cc1OC | inactive: -12.5% |
| O=S(=O)(Nc1ccc(-c2ccc(N3CCCCCC3)nn2)cc1)c1cccc(C(F)(F)F)c1 | inactive: -0.374% |
| CCc1ccc(-c2nc(SCC(=O)NCC3CCCO3)c(-c3ccc(F)cc3)[nH]2)cc1 (configuration not stated) | inactive: 3.53% |
| CNC(=O)c1ccc(CSc2nc3cccnc3n2Cc2cccc(F)c2)cc1 | inactive: -4.07% |
| N#Cc1ccc(NC(=O)c2cc(-c3cccc(Cl)c3)on2)cc1 | inactive: 4.03% |
| Fc1ccccc1N1CCN(c2ncc3c(n2)CCN(Cc2ccc(Br)s2)C3)CC1 | inactive: 3.04% |

| SMILES | activity change, negative = inhibition |
| --- | --- |
| Cc1ccc(C)c(NC(=O)N2CCc3cc(S(=O)(=O)N4CCC(C)CC4)ccc32)c1 | inactive: -0.418% |
| Cc1ccc2nc(-c3cccc(Cl)c3)c(Nc3ccc4c(c3)OCO4)n2c1 | inactive: -12.7% |
| C=CCc1ccccc1OCCn1c(C2CC(=O)N(Cc3ccc(F)cc3)C2)nc2ccccc21 (configuration not stated) | inactive: 2.81% |
| CC(Oc1ccccc1)C(=O)OCc1cc(=O)n2nc(C(C)C)sc2n1 (configuration not stated) | inactive: -8.35% |
| COc1ccccc1CCNC(=O)C(=O)NCC(c1cccs1)S(=O)(=O)c1ccc(F)cc1 (configuration not stated) | inactive: -0.78% |
| CCc1ccc(S(=O)(=O)c2nnn3c2nc(NCc2cccc(OC)c2)c2cc(Cl)ccc23)cc1 | inactive: 1.26% |
| O=C(Nc1cccc(-c2nc3ccccc3[nH]2)c1)c1ccccc1F | inactive: 3.53% |
| Cc1ccsc1CN(C(=O)c1ccc(Br)cc1)C1CCS(=O)(=O)C1 (configuration not stated) | inactive: 3.24% |
| COc1ccccc1CNC(=O)c1ccc2c(c1)nnn2C1CCCC1 | inactive: 4.02% |
| Cc1ccc(NC(=O)N2CCN3CCCCC3C2)cc1F (configuration not stated) | inactive: 2.36% |
| COc1ccccc1NC(=O)Cn1cc(C(=O)c2ccncc2)c(=O)c2cc(C)ccc21 | inactive: 0% |
| COc1ccc(Cl)cc1NC(=O)C1CCN(S(=O)(=O)c2ccc3c(c2)CCCN3C(=O)C2CCC2)CC1 | inactive: -2.34% |
| Cc1cc(=O)[nH]c2nnc(SCC(=O)Nc3ccc(F)cc3F)n12 | inactive: 1.97% |
| COc1ccc(NC(=O)c2cc(S(=O)(=O)N3CCCCC3)cn2C)cc1Cl | inactive: -0.646% |
| O=C(Nc1ccc(S(=O)(=O)N2CCCCC2c2cccnc2)cc1)c1ccc(F)cc1 (configuration not stated) | inactive: -2.69% |
| CCc1nnc2c3ccccc3nc(Nc3ccc(F)c(Cl)c3)n12 | inactive: -6.21% |
| CCCC(CCC)C(=O)Nc1nnc2n1CCS2 | inactive: -1.86% |
| CN(C)c1ccc(-c2noc(C3CC(=O)N(c4ccc5c(c4)OCCO5)C3)n2)cc1 (configuration not stated) | inactive: -12.6% |
| Cc1cccc(N(C)C(=O)c2cc(S(=O)(=O)N3CCCCC3)c[nH]2)c1 | inactive: 0.955% |
| O=C(Nc1ccc(Cl)cc1)c1cc2c(Cl)nc3ccccc3c2s1 | inactive: 1.07% |
| COC(=O)CSc1nc2sc3c(c2c(=O)n1Cc1ccccc1)CCC(C(C)(C)C)C3 (configuration not stated) | inactive: -4.42% |

| SMILES | activity change, negative = inhibition |
| --- | --- |
| CCc1ccc(CNC(=O)c2nn(-c3ccc(OC)c(Cl)c3)c(=O)c3c2c2ccccc2n3C)cc1 | inactive: -12.1% |
| CCN(Cc1ccccc1)C(=O)CN1C(=O)CSc2ccc(S(=O)(=O)N(CC)CC)cc21 | inactive: -13.4% |
| COc1ccc(-c2nn(CC(=O)NCc3ccccc3)c3c2cnc2ccc(F)cc23)cc1 | inactive: -10% |
| CCOc1ccccc1NC(=O)CN1C(=O)COc2ccc(S(=O)(=O)Nc3ccccc3)cc21 | inactive: -4.87% |
| Cc1ccc(-c2nc3nc(C)cc(N4CCN(c5cccc(C)c5)C(C)C4)n3n2)cc1 (configuration not stated) | inactive: 3.21% |
| O=C(Cn1c(=O)nc(-c2ccccc2F)c2cc(Cl)ccc21)Nc1ccccc1C(F)(F)F | inactive: 11% |
| Cc1ccc(NC(=O)C2CCCN(S(=O)(=O)c3ccc4[nH]c(=O)ccc4c3)C2)cc1C (configuration not stated) | inactive: -6.68% |
| COc1cc2oc(=O)c(CC(=O)NCCc3ccccc3F)c(C)c2cc1OC | inactive: -1.81% |
| CCCCN(C)CCCNC(=O)CN1C(=O)CSc2ccc(S(=O)(=O)N3CCOCC3)cc21 | inactive: 12.2% |
| O=C(NCc1cccs1)c1nn(-c2ccccc2F)nc1CO | inactive: -11.2% |
| CCCCNC(=O)Cn1ncc2c(C)n(Cc3cccc(Cl)c3)c(C)c2c1=O | inactive: -2.51% |
| CCNC(=O)c1c(NC(=O)Cc2coc3cc(C)ccc23)sc2c1CCCC2 | inactive: -5.01% |
| CCn1c(C(=O)NCc2ccc(OC)cc2)cc2sc(Cl)cc21 | inactive: -6.08% |
| CCn1cc(C(=O)N2CCN(c3ccccc3)CC2)c(=O)c2cc(S(=O)(=O)N3CCCC3)ccc21 | inactive: -7.27% |
| COc1cccc(C(=O)Nc2nc3nc(C)c(C)c(=O)n3[nH]2)c1 | inactive: -11% |
| O=C(Nc1c(O)c2ccccc2oc1=O)c1cccc(F)c1 | inactive: -0.34% |
| CCc1ccccc1NC(=O)Cc1cn(C)c2ccccc12 | inactive: -17.8% |
| Cc1ccc(Nc2ncnc3onc(C)c23)cc1Cl | inactive: 0.561% |
| CCOc1ccc(S(=O)(=O)Nc2cccc(C)c2)c2cccnc12 | inactive: -12.2% |
| Cc1cc(C)cc(NC(=O)c2ccc3c(O)c(S(=O)(=O)c4ccccc4)c(=O)[nH]c3c2)c1 | inactive: -3.06% |

— PubChem BioAssay AID493208 (National Center for Advancing Translational Sciences (NCATS), 2011)
